According to PMC8986152:
Results are given in words; binding and its absence hold for the method and conditions named. Binding seen in cells or lysates may run through a third protein. Some entries that bind do so weakly or less than the wild type. For part of these data: Where a sequence is shown, tags or fusion partners need not be part of it. Each block holds one molecule with its values, some of them ahead of it.

The chains behind the UniProt entries cited, without tags or fusion partners.
UniProt O95069: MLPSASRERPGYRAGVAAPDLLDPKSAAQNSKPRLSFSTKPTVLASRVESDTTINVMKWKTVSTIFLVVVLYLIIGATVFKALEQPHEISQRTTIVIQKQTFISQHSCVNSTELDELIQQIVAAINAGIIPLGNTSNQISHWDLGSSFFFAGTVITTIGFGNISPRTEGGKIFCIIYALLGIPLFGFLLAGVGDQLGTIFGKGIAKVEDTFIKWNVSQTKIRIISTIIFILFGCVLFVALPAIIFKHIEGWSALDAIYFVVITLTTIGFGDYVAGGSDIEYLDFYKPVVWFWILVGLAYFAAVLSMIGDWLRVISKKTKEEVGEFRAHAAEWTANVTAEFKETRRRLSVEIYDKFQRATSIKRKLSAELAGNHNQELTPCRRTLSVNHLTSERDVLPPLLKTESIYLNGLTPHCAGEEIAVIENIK

Assays:
[1] = biological target: T1, POPDC1-CFP (UniProt Q8NE79); test: FRET or BRET; bi-molecular FRET sensor POPDC1-CFP / YFP-TREK1 in live HEK293 cells stably expressing PDE4A4; FRET saline pH 7.4; untreated or with 25 μM forskolin, 10 μM rolipram, 10 μM scrambled or disruptor peptide
T1 sequence: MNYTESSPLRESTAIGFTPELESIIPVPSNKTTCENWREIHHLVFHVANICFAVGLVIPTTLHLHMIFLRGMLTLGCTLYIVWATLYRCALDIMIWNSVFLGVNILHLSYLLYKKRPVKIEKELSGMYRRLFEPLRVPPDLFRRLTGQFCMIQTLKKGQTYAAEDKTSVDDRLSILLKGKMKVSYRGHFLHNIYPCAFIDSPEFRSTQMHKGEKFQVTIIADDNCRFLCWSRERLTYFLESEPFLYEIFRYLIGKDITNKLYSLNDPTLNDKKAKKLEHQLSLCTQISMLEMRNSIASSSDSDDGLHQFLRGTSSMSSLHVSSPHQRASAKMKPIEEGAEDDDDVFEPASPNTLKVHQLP

[2] = biological target: T2, PDE4A (PDE4A5), endogenous in neonatal rat ventricular myocytes (rat (endogenous in neonatal rat ventricular myocytes)) (UniProt P54748); test: proximity ligation; competition: NRVMs, endogenous proteins, treated with 10 μM stearate-conjugated disruptor peptide for two hours; the peptide as competitor; only the binder purified
T2 sequence: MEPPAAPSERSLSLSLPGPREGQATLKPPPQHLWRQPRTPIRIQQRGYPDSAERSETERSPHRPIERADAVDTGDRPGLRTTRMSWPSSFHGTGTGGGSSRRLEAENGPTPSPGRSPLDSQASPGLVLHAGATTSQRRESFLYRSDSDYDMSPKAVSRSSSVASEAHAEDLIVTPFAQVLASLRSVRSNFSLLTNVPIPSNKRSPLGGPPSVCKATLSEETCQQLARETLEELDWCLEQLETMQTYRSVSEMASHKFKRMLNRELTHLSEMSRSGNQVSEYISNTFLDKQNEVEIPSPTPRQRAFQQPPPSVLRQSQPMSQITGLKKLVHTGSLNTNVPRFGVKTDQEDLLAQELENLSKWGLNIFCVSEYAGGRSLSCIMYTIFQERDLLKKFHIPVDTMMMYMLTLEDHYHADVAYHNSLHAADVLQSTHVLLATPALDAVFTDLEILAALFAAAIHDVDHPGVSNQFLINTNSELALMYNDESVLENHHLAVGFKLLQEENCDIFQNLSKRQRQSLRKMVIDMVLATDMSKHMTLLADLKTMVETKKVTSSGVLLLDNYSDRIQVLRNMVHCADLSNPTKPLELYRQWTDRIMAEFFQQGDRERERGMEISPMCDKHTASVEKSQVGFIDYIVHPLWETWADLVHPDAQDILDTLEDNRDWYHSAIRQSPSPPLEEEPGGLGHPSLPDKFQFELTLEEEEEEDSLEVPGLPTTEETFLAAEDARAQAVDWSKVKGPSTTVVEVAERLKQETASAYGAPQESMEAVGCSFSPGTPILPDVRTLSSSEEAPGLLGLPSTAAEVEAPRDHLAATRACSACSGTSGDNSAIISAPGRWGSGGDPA

[3] = biological target: T3, VSV-PDE4A5 (murine) (UniProt O89084); test: co-IP; competition: HEK293 transfected with POPDC1-myc and PDE4A5-VSV, cells treated with 10 μM stearate-conjugated disruptor peptide; myc-conjugated resin; the peptide as competitor; only the binder purified
T3 sequence: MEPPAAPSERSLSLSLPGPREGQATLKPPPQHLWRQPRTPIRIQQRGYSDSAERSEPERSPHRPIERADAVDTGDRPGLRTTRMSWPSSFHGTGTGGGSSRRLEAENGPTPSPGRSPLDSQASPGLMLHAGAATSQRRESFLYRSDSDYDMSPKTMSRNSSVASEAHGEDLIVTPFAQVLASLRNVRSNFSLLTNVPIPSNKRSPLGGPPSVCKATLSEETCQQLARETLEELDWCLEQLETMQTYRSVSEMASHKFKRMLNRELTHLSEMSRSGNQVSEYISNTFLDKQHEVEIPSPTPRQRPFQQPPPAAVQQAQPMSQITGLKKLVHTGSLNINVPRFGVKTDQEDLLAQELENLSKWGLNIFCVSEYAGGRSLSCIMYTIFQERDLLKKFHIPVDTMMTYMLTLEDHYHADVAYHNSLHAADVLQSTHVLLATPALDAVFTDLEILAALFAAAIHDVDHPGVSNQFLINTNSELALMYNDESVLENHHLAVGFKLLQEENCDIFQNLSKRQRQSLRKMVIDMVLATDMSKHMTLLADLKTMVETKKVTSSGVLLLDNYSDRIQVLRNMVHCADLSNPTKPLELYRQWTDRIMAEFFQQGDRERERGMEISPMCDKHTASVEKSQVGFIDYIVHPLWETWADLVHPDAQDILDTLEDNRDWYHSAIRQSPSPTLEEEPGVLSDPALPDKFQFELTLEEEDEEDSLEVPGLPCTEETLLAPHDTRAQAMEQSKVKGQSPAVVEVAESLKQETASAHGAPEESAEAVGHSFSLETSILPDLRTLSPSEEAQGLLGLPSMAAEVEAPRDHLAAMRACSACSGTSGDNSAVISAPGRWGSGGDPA

- binding [1]: binds
Molecule: YFP-TREK1 (from UniProt O95069 1-426)

B1: POPDC1-PDE4 disruptor peptide (T154-K178 of POPDC1 conjugated to a stearate group) (peptide)
peptide: TLKKGQTYAAEDKTSVDDRLSILLK
modifications: conjugated to a stearate group (position not given)
- binding [2]: binds
- binding [3]: binds
